Laboratory results: PubChem BioAssay AID1159614 (National Center for Advancing Translational Sciences (NCATS), 2016)
In all, about 45,000 compounds went through this assay and about 65 (0.1%) were called active. The call rests on the fitted dose curve; in most records, active means well fitted activation curve with a large enough effect; inconclusive means small, poorly fitted or top-dose-only effect; inactive means no such curve, though single readings can be large or run the other way. The list shows a part of the results.

Molecular target: Galactocerebrosidase (Homo sapiens) (UniProt P54803)
Test: A Novel Cell-Based Assay to Identify Small Molecules for B -Galactocerebrosidase; further: 0% is about no effect; nearly all actives have a fitted effect of over 65% in size
Conditions: 145M-Twi-hGALC-G270D cells, HMU-beta-Gal fluorescence, 48 h; series mostly up to 57.5 µM; activation: at the top concentration
Method in brief: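 qHTS, 1536-well; 145M-Twi-hGALC-G270D cells (WT line also made) in DMEM/F12 + 10% FBS; compound incubation on live cells; HMU-β-gal 0.1 mM final, pH 5.2, NaTC; carbonate stop; fluorescence increase = enhanced residual activity.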

UniProt P54803, sequence (P54803 whole entry, looked up): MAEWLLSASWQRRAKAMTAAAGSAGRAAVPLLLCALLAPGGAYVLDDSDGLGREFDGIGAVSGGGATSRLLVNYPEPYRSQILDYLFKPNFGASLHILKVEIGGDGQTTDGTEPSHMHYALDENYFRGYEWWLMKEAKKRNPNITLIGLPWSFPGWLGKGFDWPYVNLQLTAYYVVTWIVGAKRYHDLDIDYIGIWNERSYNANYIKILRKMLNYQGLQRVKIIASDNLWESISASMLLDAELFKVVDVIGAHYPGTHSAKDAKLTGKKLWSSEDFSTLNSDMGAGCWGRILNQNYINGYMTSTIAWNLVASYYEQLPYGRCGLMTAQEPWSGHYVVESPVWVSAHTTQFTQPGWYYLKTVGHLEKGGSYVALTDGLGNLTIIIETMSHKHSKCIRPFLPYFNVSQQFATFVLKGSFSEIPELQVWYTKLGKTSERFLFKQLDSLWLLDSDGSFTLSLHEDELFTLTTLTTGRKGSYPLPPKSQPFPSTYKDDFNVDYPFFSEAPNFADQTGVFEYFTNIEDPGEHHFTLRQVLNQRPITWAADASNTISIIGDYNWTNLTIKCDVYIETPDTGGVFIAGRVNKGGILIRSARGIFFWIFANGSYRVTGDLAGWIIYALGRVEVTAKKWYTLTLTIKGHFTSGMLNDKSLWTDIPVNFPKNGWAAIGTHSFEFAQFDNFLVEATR

activation, inactive:
O=C(CSc1nnc2ccc3ccccc3n12)c1ccc(F)cc1 -13.4%
Cc1cccc(NC(=O)c2ccc(-c3nc(CSc4ccccc4)c(C)o3)cc2)c1C -16.9%
Cc1nc2sc(C(N)=O)c(N)c2c(-c2ccc(Br)cc2)c1C(=O)Nc1ccc(Cl)cc1 -19.8%
COc1ccc(C(=O)Nc2ccc(-c3nc4ccccc4s3)cc2C)cc1Cl -7.84%
COCCNC(=O)CCN1C(=O)c2cccnc2Oc2ccc(C)cc21 -6.64%
COc1ccc(C(=O)N2CCC(c3nc(-c4ccc(S(=O)(=O)N5CCCC5)cc4)no3)CC2)cc1 -14.4%
COC(=O)c1cc2occc2n1Cc1cccc(C)c1 -19.7%
NC(=O)Cn1c(=O)n(CCCCCC(=O)NCc2ccccc2)c(=O)c2sccc21 -8.24%
Cc1ccc(-n2nc(C(=O)Nc3ccc(C)c(F)c3)c3c4ccccc4n(C)c3c2=O)cc1 -8.24%
CC(=O)Nc1nonc1-c1nnc(SCC(=O)Nc2ccc(C)c(Cl)c2)n1-c1ccccc1 -4.92%
COc1ccc(-n2c(=O)c3ccccc3n(Cc3ccccc3C)c2=O)c(OC)c1 -17.2%
Cc1ccc(-n2nc(CO)c(C(=O)NCCCc3ccccc3)n2)cc1 -9.16%
CCc1ccccc1Nc1nc2cc(Cl)c(Cl)cc2nc1-n1nc(C)cc1C -3.81%
CCOc1ccc(C(=O)c2cnc3ccc(Cl)cc3c2S(=O)(=O)c2ccc(C)cc2)cc1 -26.5%
CCOc1ccc(CNC(=O)C2CCCN(S(=O)(=O)N(C)c3ccc(F)cc3)C2)cc1OC (stereo unspecified) -13.5%
Cc1ccc(-n2ncc3c(Nc4ccccc4C)ncnc32)cc1 -7.5%
COc1cccc(Cn2c(NCc3ccc(C)cc3)nc3c2c(=O)n(C)c(=O)n3C)c1 -18.9%
CC(=O)Nc1ccc(NS(=O)(=O)c2c(C)nc3sccn3c2=O)cc1 -10.5%
CCOC(=O)c1cnc2c(ccc3ccccc32)c1Nc1ccc(Cl)cc1 -15.9%
CC[C@]12CCCN3CCc4c(n(c5ccccc45)[C@@](O)(C(=O)OC)C1)[C@@H]32 -9.09%
CC(=O)c1ccc(NC(=O)c2ccc(-c3nc(COc4ccc(C)cc4)c(C)o3)cc2)cc1 15.5%
COc1ccc(-c2cn3nc(N4CCCC(C(=O)NCc5ccccc5OC)C4)sc3n2)cc1 (stereo unspecified) -10.5%
Cc1nn(-c2ccc3nnc(C)n3n2)c(C)c1CCC(=O)Nc1ccc(OC(F)(F)F)cc1 -14.8%
COC(=O)c1cc(-c2ccc(OC)c(OC)c2)c2c(=O)[nH]c(=O)n(C)c2n1 1.5%
CCC(=O)N1CCc2cc(S(=O)(=O)NC(CC(C)C)C(=O)NCc3ccc(F)cc3)ccc21 (stereo unspecified) -26.7%
C[N+]1(CC2COC(c3ccccc3)(C3CCCCC3)O2)CCCCC1 (stereo unspecified) -15.6%
